# Experimental data taken from PubChem BioAssay (NCATS).
# “And” between values parts separate entries of the source, which are not always exact repeats. Identical values can stand only once. The inconclusive results got no clear call from the source; some entries with a clear call stand among them for comparison. For part of these data: No potency is given beside an inconclusive call; the fits are too rough. Some structures have more than one record in an assay (separate samples or runs), and their calls can disagree. The source made the active and inactive calls. Unless noted, calls come from the whole dose curve; as a rule, active = well fitted curve in the direction sought with a large enough effect; inconclusive = small, poorly fitted or top-dose-only effect, or another doubt; inactive = no such curve, though single readings can be large; an effect the other way counts as inactive or inconclusive.
# What was measured:
# [1] = qHTS Screen of the MIPE 4.0 Collection Against Ewings Sarcoma (RDES) (AID 1259252); note: nearly all actives have a fitted effect of over 35% in size
# Outline: (§1)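 Log-phase cells in RPMI with 5% FBS attached for 4 h, then received compounds as a titration for 48 h at 37C, 5% CO2. Viability was read by CellTiter-Glo luminescence and normalized to DMSO and no-cell wells.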
# [2] = qHTS Screen of the MIPE 4.0 Collection Against Ewings Sarcoma (TC32) (AID 1259256); note: nearly all actives have a fitted effect of over 45% in size
# Outline: as §1
# [3] = qHTS assay to identify small molecule inhibitors of chordoma cells - UCH-1 (AID 1259355); note: nearly all actives have a fitted effect of over 55% in size
# Outline: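 Screening used approved and investigational drugs in 15-point titration against 800 seeded cells per well. A fixed combination of auranofin with camptothecin, doxorubicin, rubitecan and topotecan followed compound addition, and growth was scored by CellTiter-Glo after 48hr.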
# [4] = Natriuretic polypeptide receptor (hNpr1) antagonism - Pilot counterscreen GloSensor control cell line (AID 1347045; calls by dose curve)
# Outline: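 Control counterscreen: luciferase cGMP-biosensor HEK293 cells (no Npr1) received compound for 30 min at room temperature after GloSensor substrate loading. Luminescence was measured before and 20 min after soluble guanylyl cyclase activation by 50 uM nitroprusside.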
# [5] = molecular target: Atrial natriuretic peptide receptor 2 (Homo sapiens) (UniProt P20594); assay: Natriuretic polypeptide receptor (hNpr2) antagonism - Pilot subtype selectivity assay (AID 1347050; calls by dose curve)
# Outline: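 Luminescence from a genetically encoded cGMP luciferase biosensor in hNpr2-expressing HEK293 cells is read before and 20 min after adding 1 nM hNppC. Test compounds, in interplate 1:5 titrations, are added 30-50 min ahead of the agonist.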
# [6] = qHTS Screen of the MIPE 4.0 Collection Against Ewings Sarcoma (TC71) (AID 1259253); note: nearly all actives have a fitted effect of over 40% in size
# Outline: as §1
# [7] = P-glycoprotein substrates identified in KB-8-5-11 adenocarcinoma cell line, qHTS therapeutic library screen (AID 1346987); note: nearly all actives have a fitted effect of over 65% in size
# Outline: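 Compounds are pinned in dose-response onto KB-8-5-11 cells (500 cells/well, colchicine-free medium) and left 72 h at 37 degree C. CellTiter-Glo luminescence then yields AC50 values.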
# [8] = qHTS Screen of the MIPE 4.0 Collection Against Ewings Sarcoma (EW8) (AID 1259255); note: nearly all actives have a fitted effect of over 35% in size
# Outline: as §1
# [9] = Identifying Small Molecule Inhibitors of Pancreatic Cancer Stem Cells (A2780, Spheroid) (AID 1259357); conditions: Potency: A2780 spheroid viability; series mostly up to 46.1 µM;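 note: compound exposure lasted 48 h before the ATP luminescence read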
# Outline: (§2)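 Luminescent ATP readout (CellTiter-Glo) quantifies surviving cells after a 48 h drug incubation. Normalization uses DMSO wells as no inhibition and media-only wells as full inhibition; bortezomib served as positive control.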
# [10] = Identifying Small Molecule Inhibitors of Pancreatic Cancer Stem Cells (Panc1, Spheroid) (AID 1259359); conditions: Panc1 spheroid cancer stem cell viability; viability, % of control: at 46.1 µM (top of the series);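 note: compound exposure lasted 48 h before reading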
# Outline: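 Spheroids grown 14 days in stem cell media on nonadherent hydrogel before screening; cells attached 4 h, then compound exposure 48 h at 37C, 5% CO2. CellTiter-Glo luminescence normalized to DMSO (no inhibition) and no-cell wells (full inhibition).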
# [11] = Identifying Small Molecule Inhibitors of Pancreatic Cancer Stem Cells (SN12C, Spheroid) (AID 1259360); conditions: Potency: SN12C spheroid viability
# Outline: as §2
# [12] = Identifying Small Molecule Inhibitors of Pancreatic Cancer Stem Cells (Panc1, Adherent) (AID 1259362); conditions: Potency: viability; viability, % of control: at 46.1 µM (top of the series)
# Outline: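 Cytotoxicity read by CellTiter-Glo luminescence after 48 h compound exposure at 37C; percent activity scaled between DMSO-treated cells and cell-free wells. Spheroid formats used cells pre-formed 14 days in stem cell media on hydrogel.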
# [13] = P-glycoprotein substrates identified in KB-3-1 adenocarcinoma cell line, qHTS therapeutic library screen (AID 1346986);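 note: potency is for cytotoxicity meaning loss of cell viability; nearly all actives have a fitted effect of over 60% in size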
# Outline: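 In 1536-well format, 500 cells/well received pinned compound titrations and were incubated 72 h, 5% CO2. Viability was read by CellTiter-Glo; cytotoxic if AC50 < 10 uM and efficacy >50%.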
# [14] = qHTS Assay for Identifying Gametocytocidal Compounds (AID 743244); conditions: P. falciparum 3D7 stage III-V gametocytes, alamarBlue, 72 h; max response: active compounds read low
# Outline: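 Fluorescence at Ex 525/Em 598 nm, recorded 24 h after alamarBlue addition, reports residual metabolic activity of 3D7 gametocytes (stages III–V) following 72 h compound exposure at 37 °C, 5% CO2.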
# [15] = qHTS assay to identify small molecule inhibitors of chordoma cells - UCH-2 (AID 1259356); conditions: UCH-2 chordoma viability, CellTiter-Glo ATP luminescence, 48 h
# Potency is the fitted concentration of half-maximal effect; tags give direction and shape of the fitted curve.
# UniProt P20594, sequence (P20594 whole entry, looked up): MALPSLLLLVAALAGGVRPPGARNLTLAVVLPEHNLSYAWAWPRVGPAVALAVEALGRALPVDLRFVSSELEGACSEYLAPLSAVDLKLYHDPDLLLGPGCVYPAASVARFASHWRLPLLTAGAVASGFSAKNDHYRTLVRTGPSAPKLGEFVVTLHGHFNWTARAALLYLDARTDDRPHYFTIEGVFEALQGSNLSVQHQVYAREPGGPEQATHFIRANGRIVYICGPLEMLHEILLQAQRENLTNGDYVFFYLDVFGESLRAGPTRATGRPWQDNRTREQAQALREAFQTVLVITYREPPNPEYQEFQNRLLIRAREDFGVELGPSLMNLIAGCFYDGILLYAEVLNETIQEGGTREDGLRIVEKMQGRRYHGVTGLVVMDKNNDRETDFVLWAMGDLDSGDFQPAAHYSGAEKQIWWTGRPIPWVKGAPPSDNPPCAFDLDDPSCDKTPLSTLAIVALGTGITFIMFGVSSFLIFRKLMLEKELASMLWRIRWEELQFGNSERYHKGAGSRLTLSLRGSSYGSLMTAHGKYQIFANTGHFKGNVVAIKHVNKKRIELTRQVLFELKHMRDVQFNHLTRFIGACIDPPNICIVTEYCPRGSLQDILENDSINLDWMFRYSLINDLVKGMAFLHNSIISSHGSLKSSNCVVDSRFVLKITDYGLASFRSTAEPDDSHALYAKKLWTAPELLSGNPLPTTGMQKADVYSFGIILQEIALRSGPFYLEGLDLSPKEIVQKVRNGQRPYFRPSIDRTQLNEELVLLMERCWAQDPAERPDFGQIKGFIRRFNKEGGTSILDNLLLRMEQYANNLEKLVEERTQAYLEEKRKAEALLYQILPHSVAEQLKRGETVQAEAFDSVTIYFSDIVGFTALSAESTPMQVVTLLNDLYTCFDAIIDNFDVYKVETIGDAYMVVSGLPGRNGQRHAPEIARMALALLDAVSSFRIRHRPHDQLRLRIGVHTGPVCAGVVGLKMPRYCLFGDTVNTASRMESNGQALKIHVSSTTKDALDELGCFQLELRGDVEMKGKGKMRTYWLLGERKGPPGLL
structure (smiles),measurement,setting,value
CN(C)C(=O)C(CCN1CCC(O)(c2ccc(Cl)cc2)CC1)(c1ccccc1)c1ccccc1,Potency,[1],"inconclusive [inhibitor, partial curve]"
same,Potency,[2],active: 18.7 µM
same,Potency,[3],"inconclusive [cytotoxic, full curve, poor fit]"
same,Potency,[4],active: 26.1 µM
same,Potency,[5],"inconclusive [inhibitor, single point]"
COCCCOc1cc(C[C@@H](C[C@H](N)[C@@H](O)C[C@H](C(=O)NCC(C)(C)C(N)=O)C(C)C)C(C)C)ccc1OC,Potency,[6],inactive
O=c1oc2c(O)c(O)cc3c(=O)oc4c(O)c(O)cc1c4c23,Potency,[1],inactive
same,Potency,[2],inactive
same,Potency,[3],inactive
same,Potency,[7],"inconclusive [inhibitor, single point]"
Cc1cc(C(=O)N2CCN(c3cccc(Cl)c3)CC2)n(-c2ccccc2)n1,Potency,[1],active: 0.743 µM
same,Potency,[2],inactive
same,Potency,[7],active: 372 nM and active: 1.3 µM
CCCNC(=O)Nc1ccc(Oc2ncnc3cc(OC)c(OC)cc23)cc1Cl,Potency,[6],inactive
same,Potency,[8],inactive
same,Potency,[7],"inconclusive [inhibitor, single point]"
COCCOc1nc(-c2ccc(Cl)c(Cl)c2)n(-c2ccc(NC(=O)CCl)cc2)n1,Potency,[6],"inconclusive [inhibitor, partial curve]"
same,Potency,[8],"inconclusive [inhibitor, partial curve]"
same,Potency,[2],"inconclusive [inhibitor, single point]"
same,Potency,[7],active: 14.6 µM
OCCCNc1cc(-c2ccnc(Nc3cccc(Cl)c3)n2)ccn1,Potency,[8],active: 0.148 µM
same,Potency,[7],active: 83.3 nM and active: 146 nM
CCOc1ccc(Nc2nc(-c3c(C)nc4ccccn34)cs2)cc1,Potency,[6],"inconclusive [inhibitor, full curve]"
same,Potency,[8],"inconclusive [inhibitor, full curve]"
same,Potency,[9],active: 0.296 µM
same,Potency,[10],"inconclusive [cytotoxic, full curve, poor fit]"
same,Potency,[11],"inconclusive [cytotoxic, partial curve]"
same,Potency,[12],"inconclusive [cytotoxic, full curve]"
NC(=O)c1cnc(-c2ccc(C3(N)CCC3)cc2)c(-c2ccccc2)c1,Potency,[8],"inconclusive [inhibitor, single point]"
same,Potency,[2],"inconclusive [inhibitor, partial curve, poor fit]"
same,Potency,[13],active: 16.4 µM
same,Potency,[7],"inconclusive [inhibitor, single point]"
OCCN(CCO)c1nc(N2CCCCC2)c2nc(N(CCO)CCO)nc(N3CCCCC3)c2n1,Potency,[14],"inconclusive [inhibitor, single point]"
same,Potency,[8],"inconclusive [inhibitor, partial curve]"
same,Potency,[2],"inconclusive [inhibitor, single point]"
same,Potency,[3],"inconclusive [cytotoxic, full curve, poor fit]"
Cc1ccc(C(=O)N(CCCN)[C@@H](c2oc3cc(Cl)ccc3c(=O)c2Cc2ccccc2)C(C)C)cc1,Potency,[6],"inconclusive [inhibitor, partial curve, poor fit]"
COCCOC(=O)C1=C(C)NC2=C(C(=O)CC(c3ccccc3OC)C2)C1c1cccc(O)c1 (configuration not stated),Potency,[6],"inconclusive [inhibitor, partial curve]"
same,Potency,[8],"inconclusive [inhibitor, single point]"
same,Potency,[2],"inconclusive [inhibitor, partial curve]"
same,Potency,[7],inactive
CC(=O)SCC(Cc1ccccc1)C(=O)NCC(=O)OCc1ccccc1 (configuration not stated),Potency,[2],active: 0.743 µM
same,Potency,[7],inactive
Cc1cnc(C(=O)O)c[n+]1[O-],Potency,[6],"inconclusive [inhibitor, partial curve, poor fit]"
same,Potency,[8],inactive
same,Potency,[2],"inconclusive [inhibitor, partial curve, poor fit]"
CN(C[C@@H]1COCCO1)S(=O)(=O)Nc1ccc2ccc3ncc(-c4cnn(C)c4)cc3c(=O)c2c1,Potency,[6],"inconclusive [inhibitor, partial curve]"
same,Potency,[2],"inconclusive [inhibitor, full curve]"
same,Potency,[7],active: 18.7 µM and active: 18.4 µM
C[C@@H](NCCCc1cccc(C(F)(F)F)c1)c1cccc2ccccc12,Potency,[14],"inconclusive [inhibitor, single point]"
same,Potency,[2],"inconclusive [inhibitor, single point]"
same,Potency,[3],"inconclusive [cytotoxic, single point]"
same,Potency,[15],active: 25.9 µM
CN(C)Cc1cccc(N=C(c2ccccc2)c2c(O)[nH]c3cc(C(=O)N(C)C)ccc23)c1,Potency,[6],"inconclusive [inhibitor, partial curve]"
same,Potency,[8],"inconclusive [inhibitor, partial curve]"
same,Potency,[2],"inconclusive [inhibitor, single point]"
same,Potency,[7],"inconclusive [inhibitor, single point]"
